Assay results as given in publication PMC4336329 (PLoS ONE, 2015).
The whole screen tested about 310,000 compounds, of which about 14,000 (4.5%) showed an effect of 50% or more. Effects have a minus sign here. This is one part of the list.

Biological target: human ether-à-go-go-related gene (hERG) potassium channel (human, UniProt Q12809)
Assay: primary screen, population patch clamp on CHO cells stably expressing hERG
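Further: peak tail current of the secondary pulse compared with the same well before compound.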

Sequence of human ether-à-go-go-related gene (hERG) potassium channel (Q12809 whole entry, looked up): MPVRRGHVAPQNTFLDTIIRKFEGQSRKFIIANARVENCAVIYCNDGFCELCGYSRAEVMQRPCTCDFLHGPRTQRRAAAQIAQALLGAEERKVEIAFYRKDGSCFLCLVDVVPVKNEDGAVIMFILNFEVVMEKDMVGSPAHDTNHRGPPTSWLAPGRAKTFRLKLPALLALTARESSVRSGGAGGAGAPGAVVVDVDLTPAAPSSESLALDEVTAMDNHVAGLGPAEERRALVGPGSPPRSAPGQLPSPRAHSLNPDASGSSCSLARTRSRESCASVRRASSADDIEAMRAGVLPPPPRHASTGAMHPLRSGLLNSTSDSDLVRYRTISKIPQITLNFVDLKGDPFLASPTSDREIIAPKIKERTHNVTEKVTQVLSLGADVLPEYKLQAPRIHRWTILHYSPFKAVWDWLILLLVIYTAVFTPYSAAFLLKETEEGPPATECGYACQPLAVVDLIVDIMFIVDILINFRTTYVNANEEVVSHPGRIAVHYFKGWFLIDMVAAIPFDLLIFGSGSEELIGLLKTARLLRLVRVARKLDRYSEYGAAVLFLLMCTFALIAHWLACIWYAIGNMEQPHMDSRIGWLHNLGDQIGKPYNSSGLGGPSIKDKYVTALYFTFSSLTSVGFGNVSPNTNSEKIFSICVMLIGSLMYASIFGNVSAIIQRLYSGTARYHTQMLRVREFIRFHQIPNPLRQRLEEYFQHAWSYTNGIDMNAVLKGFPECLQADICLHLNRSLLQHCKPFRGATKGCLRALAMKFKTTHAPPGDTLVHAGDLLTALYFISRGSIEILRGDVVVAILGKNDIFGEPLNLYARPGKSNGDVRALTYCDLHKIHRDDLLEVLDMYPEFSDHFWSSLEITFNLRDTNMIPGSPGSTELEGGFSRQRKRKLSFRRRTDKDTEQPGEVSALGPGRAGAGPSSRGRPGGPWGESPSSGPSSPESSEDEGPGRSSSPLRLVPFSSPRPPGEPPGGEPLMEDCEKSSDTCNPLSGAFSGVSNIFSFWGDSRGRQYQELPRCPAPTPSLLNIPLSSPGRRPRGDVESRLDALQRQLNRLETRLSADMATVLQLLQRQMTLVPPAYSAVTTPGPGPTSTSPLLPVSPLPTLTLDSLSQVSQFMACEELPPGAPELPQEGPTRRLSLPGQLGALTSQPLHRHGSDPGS

Row | SMILES | hERG current change (%, negative = inhibition) at 10uM
1 | COc1ccc(OC)c(C(C)NS(=O)(=O)c2cccs2)c1 (centres unmarked) | -7.95%
2 | COC(=O)c1c(C(=O)c2ccc(Br)cc2)n(C)c2ccccc12 | 5.52%
3 | CSc1ccc(CN(C)C(=O)COc2ccc(C(=O)c3ccccc3)cc2)cc1 | 2.28%
4 | Cn1cc(S(=O)(=O)Nc2ccc(F)c(Cl)c2)c(=O)n(C)c1=O | 9.4%
5 | CNC(=S)/N=C(\Nc1ccc(C)cc1)c1ccccc1 | 13.1%
6 | CC(=O)Nc1ccc(/C=N/NC(=O)c2cccs2)cc1 | 6.45%
7 | Cc1cccc(NC(=O)CN2CCN(CC(=O)Nc3ccc(-c4ccccc4)cc3)CC2)c1C | -17%
8 | CCOC(=O)Cc1nnc(NC(=O)CSc2ccc(Cl)cc2)s1 | 2.74%
9 | O=C(Nc1nnc(CCc2ccccc2)s1)c1ccccc1 | 12.5%
10 | CC(C)CC(=O)N/C(N)=N/c1nc2ccccc2s1 | -16%
11 | COc1ccc(NC(=O)N2CCCc3cccc(C)c32)cc1 | -8.83%
12 | CN1CC(=O)N(CC(=O)Nc2cc(Cl)cc(Cl)c2)C1=O | 4.4%
13 | CN(Cc1ccccc1)C(=O)CCC(=O)N(C)Cc1ccccc1 | 2.28%
14 | O=C1C2C3C=CC(O3)C2C(=O)N1CC(O)c1ccccc1 (centres unmarked) | 1.77%
15 | Cc1ccc(NC(=S)Nc2ccccn2)c(C)c1 | -0.823%
16 | Cc1ccc(S(=O)(=O)N2CCCCC2)cc1C(=O)OC1CCCCC1=O (centres unmarked) | -14.7%
17 | C/C(Cl)=C/CC1(CN2CCCC2=O)C(=O)NC(=O)NC1=O | 15.4%
18 | CC(C)(C)NCC(O)COCc1ccc(Cl)cc1.Cl (centres unmarked) | -24.6%
19 | CCN(Cc1ccccc1)C(=O)Cn1cc2c(n1)CCCC2 | 0.356%

Row | SMILES | hERG current change (%, negative = inhibition) at 10uM
20 | Cc1cccc(N/N=C(\C#N)S(=O)(=O)C(C)(C)C)c1 | 5.62%
21 | [Cl-].[NH3+]CCCn1c(C(=O)c2ccc(Cl)cc2)c2ccc(C(F)(F)F)cc2[n+]1[O-] | -79.2%
22 | CCOC(=O)C1CCN(C(c2cccnc2)c2c(NC(=O)c3ccco3)sc(C)c2C)CC1 (centres unmarked) | -19.1%
23 | O=C(NCc1ccc2c(c1)OCO2)c1ccc(Br)o1 | 7.09%
24 | CCc1nc2scc(-c3cccs3)c2c(=O)o1 | 5.12%
25 | O=C(CSc1nccc(=O)[nH]1)Nc1ccc2c(c1)OCCO2 | 51.6%
26 | CCOc1ccccc1NC(=O)CSc1nc2cc(O)ccc2c(=O)n1-c1ccc(OC)c(OC)c1 | 9.24%
27 | CC(=O)Nc1ccc(NS(=O)(=O)c2ccc(-c3cnc(C4CC4)o3)cc2)cc1 | 3.37%
28 | CC1CC(Nc2ccccc2)c2ccccc2N1C(=O)c1ccncc1 (centres unmarked) | 5.73%
29 | CN(CC(=O)Nc1cccc(S(=O)(=O)N2CCCC2)c1)CC(=O)Nc1ccc(Cl)c(C(F)(F)F)c1 | -22.4%
30 | CCOC(=O)C1CCN(S(=O)(=O)c2ccc3c(c2)CCN3C(=O)C2CCC2)CC1 | 14.1%
31 | CCOC(=O)C1CCN(C(C(=O)Nc2ccc3c(c2)OCCO3)c2ccccc2)CC1 (centres unmarked) | -14.4%
32 | Cc1cc(N2CCCC(C(=O)Nc3cccc4ccccc34)C2)n2ncnc2n1 (centres unmarked) | -61.9%
33 | COc1ccccc1OCC(O)Cn1c(Br)nc2c1c(=O)[nH]c(=O)n2C (centres unmarked) | -9.6%
34 | NS(=O)(=O)c1ccc(NC(=O)COC(=O)C2CCCCC2)cc1 | -7.3%
35 | COc1ccc(OC)c(-n2c(SC)nnc2-c2c[nH]c3ccccc23)c1 | -2.95%
36 | O=c1cc(CSc2ccc(S(=O)(=O)N3CCCCC3)cn2)nc2sccn12 | -18.6%
37 | Cc1ccc(-c2nc3cccnc3o2)cc1NC(=O)COc1ccc(C(C)(C)C)cc1 | 7.05%
38 | COc1ccc(-n2c(O)c(C=NCCN(C)C)c(=O)[nH]c2=O)cc1 | -1.34%

Row | SMILES | hERG current change (%, negative = inhibition) at 10uM
39 | CCN1C(=O)C2(C(C(=O)c3ccc(C)o3)=C(O)C(=O)N2CCCN2CCOCC2)c2ccccc21 (centres unmarked) | 0.0517%
40 | O=C(COC(=O)c1c[nH]c2ccccc12)NC1CCCCC1 | -0.35%
41 | COc1cc(OC)c(C(=O)OC(C)C(=O)Nc2cccc(C(F)(F)F)c2)cc1OC (centres unmarked) | -1.96%
42 | Cc1ccc(NC(=O)Cn2c3ccc(F)cc3c3nc4n(c(=O)c32)CCS4)cc1F | 8.3%
43 | CCOC(=O)C1CCN(C(=O)c2ccccc2NS(=O)(=O)c2ccc(F)cc2)CC1 | -12.8%
44 | COc1ccc(C(=O)N/C(=C/c2cccnc2)C(=O)N2CCN(C)CC2)cc1OC | 11.4%
45 | CN(Cc1nc2ccccc2c(=O)[nH]1)Cc1cc(=O)oc2ccc3ccccc3c12 | -10.1%
46 | Cc1ccc(-c2cn(CCN)c(-c3ccc(Cl)nc3)n2)cc1 | -21.7%
47 | O=C(COC(=O)CCC(=O)Nc1nccs1)NCc1ccco1 | 5.94%
48 | COC(=O)/C=C(\C)NC(=O)c1cccs1 | -4.27%
49 | O=C(/C=C/c1ccc(Cl)c(Cl)c1)NC1=NCCS1 | 35.8%
50 | CCOc1cc(CNC2CCCC2)cc(Cl)c1OCc1ccc(F)cc1.Cl | -17.6%
51 | Cc1ccc(CNC(=O)Cn2cnc3cc([N+](=O)[O-])ccc3c2=O)cc1 | -30.2%
52 | O=C(COc1ccc(Cl)cc1Cl)N1CCCCCC1 | -13.6%
53 | c1cc(C2OCCN2CC2COC3(CCCC3)O2)ccn1 (centres unmarked) | 18.4%
54 | CCOC(=O)[C@H](CCc1ccccc1)N[C@@H](C)C(=O)N1CCC[C@@H]1C(=O)O.O=C(O)/C=C\C(=O)O | 6.13%
55 | Cc1nn(C)c(C)c1NS(=O)(=O)c1ccccc1 | 7.92%
56 | CC1(C)Oc2ccc(NC(=O)C3COc4ccccc4O3)cc2O1 (centres unmarked) | -12.3%
